In all, about 13,000 compounds were measured (“IFI”: median about 4, highest 2% from about 17 on). Some of the results follow.
Assay: GSK_TCMDC: Inhibition Frequency Index (IFI). The number of non-kinase HTS assays where a compound showed > 50 % inhibition, expressed as a percentage of the number of such assays in which the compound was tested (-0 is zero)
Assay type: functional
In the case of Cc1ccc(CN2CCCN(Cc3cccc(NC(=O)c4cc5ccccc5s4)c3)CC2)cc1C, the IFI is reported as 9.92%.
In the case of CCOc1cc2ncnc(Nc3ccc(OCc4c(Cl)cccc4Cl)c(OC)c3)c2cc1OCC, the IFI is reported as -0%.
In the case of O=C(Nc1ccc(C(=O)OCC2CCCN3CCCCC23)cc1)c1ccc([N+](=O)[O-])cc1 (stereo not given), the IFI is reported as 0.76%.
NCc1cccc(-c2cccc(CNC3CCN(Cc4ccccc4)CC3)c2)c1 showed an IFI of 1.45%.
In the case of COc1cc2c(cc1OCCN1CCC(N)CC1)N(C(=O)/C=C/c1ccccc1Cl)CC2, the IFI is reported as 5.63%.
In the case of COc1ccc(CNCCc2cccs2)cc1-c1cccc(S(=O)(=O)NCCN2CCCC2)c1, the IFI is reported as 9.8%.
O=C(/C=C/c1ccc(Cl)c(Cl)c1)NCCCCN1CCCN(C(=O)Nc2cc(Cl)cc(Cl)c2)CC1 gave an IFI of 7.44%.
With CC(C)NCc1ccc(-c2ccc(NC(=O)c3ccc(C#N)cc3)cc2)cc1 the IFI was 4.12%.
With O=C(Nc1ccc(F)cc1F)NC1CCN(CCCCCNC(=O)C2CC2c2ccc(Cl)c(Cl)c2)CC1 (stereo not given) the IFI was 12.8%.
CC(C)(C)c1ccc(CN2CCC(CNC(=O)c3cc(-c4cccc(C(F)(F)F)c4)cs3)C2)cc1 (stereo not given) showed an IFI of 16%.
Cc1ccc(Cn2nc(Cl)c(N3CCNCC3)cc2=O)cc1NC(=O)Nc1ccc(-c2ccccc2)cc1 showed an IFI of 10.4%.
Compound COc1ccc2ccccc2c1CCCCN1CCN(CC(c2ccc(F)cc2)N2CCN(C3CCCC3)CC2)CC1 (stereo not given) has an IFI of 12.8%.
CC1(C)NC(N)=NC(=N)N1OCCOc1cccc(C(F)(F)F)c1 showed an IFI of 3.7%.
CCn1cc(C=C2Oc3c(ccc(O)c3CN3CCCCC3C)C2=O)c2ccccc21 (stereo not given) showed an IFI of 2.63%.
With O=C(Nc1cccc(Cl)c1)c1cc2ccccc2cc1O the IFI was 4.69%.
COc1ccccc1C1CCN(C2CCC(NC(=O)/C=C/c3cc(C(F)(F)F)ccc3F)CC2)CC1 (stereo not given) gave an IFI of 8.2%.
C=C1C(C(=O)OCC)=CN(CC)c2cc(O[C@H]3CCN(C(=O)OC(C)(C)C)C3)ccc21 showed an IFI of -0%.
Compound CCc1c(C(=O)NC2CCC(N3CCC(c4ccccc4OC)CC3)CC2)[nH]c2ccc(Br)cc12 (stereo not given) has an IFI of 16.4%.
CCCCCCOc1ccc(N2C(N)=NC(N)=NC2(C)C)cc1 gave an IFI of 2.92%.
Compound CN1CCC(C(=O)N(Cc2ccc(-c3ccc(CNCCc4ccc(S(C)(=O)=O)cc4)cn3)cc2)Cc2ccc3c(c2)OCO3)CC1 has an IFI of 3.47%.
With COc1ccc(NC(=O)NC2CCN(c3ccnc4cc(Cl)ccc34)CC2)cc1 the IFI was -0%.
CNC(=O)c1ccccc1Nc1nc(Nc2cccnc2)ncc1C showed an IFI of 0%.
CCc1cn(C)c2c(N3CCCC3=O)cc(C(=O)N[C@@H](Cc3ccccc3)[C@H](O)CNC(C)(C)c3cccc(OC)c3)cc12 gave an IFI of 5%.
Compound CCNc1cc(C(=O)N[C@@H](Cc2ccccc2)[C@H](O)CNC2CCCCC2)cc(N2CCCCS2(=O)=O)c1 has an IFI of 1.46%.
For CC(=O)Nc1cccc(CNCc2ccc(-c3cnc(N4CCCC(C)(C)C4)nc3)cc2)c1, the IFI was 2.47%.
Work on COc1ccc(N(c2nc(-c3cc(Cl)ccc3Cl)cs2)C2CCNC2)cc1 (stereo not given) yielded an IFI of 20%.
With CCN(CC)CCNc1ccnc2[nH]c3ccc(C)cc3c12 the IFI was 0%.
Work on COc1ccccc1N1CCN(CCCCNC(=O)c2ccc(NC(=O)c3cc(Cl)cc(Cl)c3)cc2)CC1 yielded an IFI of 3.57%.
For C=Cc1ccc(-c2c(C)[nH]c(C)c(Br)c2=O)cc1, the IFI was 0.89%.
CC(C)(C)Nc1cc(C2CC2)nc(-c2ccccn2)n1 showed an IFI of 2.68%.
For CN(C)CCOc1ccc(-c2cc(-c3ccnc(N)n3)c(-c3ccc(Cl)c(O)c3)o2)cc1, the IFI was 5.04%.
Work on Cc1[nH]c(C)c(-c2ccc(-c3cccc(C(F)(F)F)c3)nc2)c(=O)c1Br yielded an IFI of 4.55%.
Cc1[nH]c(C)c(-c2ccc(-c3ccc(F)cc3)nc2)c(=O)c1Br gave an IFI of 1.82%.
Work on CN(C)Cc1ccc(-c2cccc(Nc3nccc(NCC(O)c4ccccc4)n3)c2)cc1 (stereo not given) yielded an IFI of 11.2%.
COc1cc2nc(Nc3ccc4c(cnn4Cc4ccccc4)c3)nc(Nc3ccc4c(cnn4Cc4ccccc4)c3)c2cc1OC gave an IFI of 6.4%.
For CCC(=O)N(c1ccccc1)C1CCN(CCCC(NC(=O)c2cc(C(F)(F)F)cc(C(F)(F)F)c2)c2ccc(Cl)c(Cl)c2)CC1 (stereo not given), the IFI was 3.57%.
With Cc1ccc(/C=C/C(=O)NC2CCC(N3CCC(c4ccccc4C)CC3)CC2)cc1C (stereo not given) the IFI was 15%.
In the case of COc1cc2nc(NCCCOC(C)C)n3nc(-c4ccccc4)nc3c2cc1OC, the IFI is reported as 0.85%.
Work on COc1cccc2sc(N3CCN(C(=O)c4ccc([N+](=O)[O-])o4)CC3)nc12 yielded an IFI of 0%.
In the case of CCOc1cc[nH]c(=O)n1, the IFI is reported as -0%.
Compound COc1ccccc1CN1CCC(NC(=O)c2ccc(-c3cccc(Cl)c3)s2)CC1 has an IFI of 8.62%.
COc1cc(Nc2nccc(N3CCC(NC(=O)c4cccc(NC(C)=O)c4)C3)n2)cc(OC)c1OC (stereo not given) showed an IFI of 4.55%.
In the case of O=S(=O)(NCCN1CCCC1)c1cccc(-c2cccc(CNCc3ccc(F)cc3)c2)c1, the IFI is reported as 8.65%.
Compound COc1cccc(NC(=O)[C@H](C)n2c(=O)[nH]c3ccccc3c2=O)c1 has an IFI of 0%.
With CCN(CC)S(=O)(=O)c1ccc(Cl)c(C(=O)Nc2ccc3nc(C)sc3c2)c1 the IFI was 3.64%.
CC(C)CCNc1nc(NCCCc2ccccc2)c2cc(O)ccc2n1 showed an IFI of 11.3%.
With CNc1ccc(CNCc2cccc(-c3ccc(-c4nc5cccc(C)c5[nH]4)s3)c2)cc1 the IFI was 11.9%.
O=C(/C=C/c1ccc(Cl)c(Cl)c1)NCCCCN1CCCN(C(=O)Nc2ccc(F)c(Cl)c2)CC1 gave an IFI of 6.9%.
Work on Cc1sc(CNCCCNc2cc(=O)c3ccccc3[nH]2)cc1Br yielded an IFI of 4.35%.
Work on CCOc1cc(C)ccc1C1CCN(CCCCNC(=O)c2ccc(-c3ccc(C(F)(F)F)cn3)cc2)CC1 yielded an IFI of 7.02%.
For Oc1cccc(-c2cnc3ccc(NCc4ccc(F)cc4)nn23)c1, the IFI was 4.65%.
For COc1cc2c(c(Cl)c1OC)CCN(Cc1ccccc1)CC2c1ccc(NC(=O)C(F)(F)F)cc1 (stereo not given), the IFI was 1.46%.
For c1ccc(CN2CCC(NCc3ccc(-c4cccc(CNC5CCCC5)c4)cc3)CC2)cc1, the IFI was 3.52%.
Cc1nc2nc(N)nc(N)c2c(C)c1Cc1ccc(O)cc1 gave an IFI of 2.29%.
Cn1cnc(CCNC(=O)c2ccc(-c3ccc(-c4nc5cc(F)ccc5[nH]4)cc3)cc2)c1 gave an IFI of 3.81%.
In the case of O=C(CCc1cccc(O)c1)NCC(NCCCNc1cc(=O)c2ccccc2[nH]1)c1cc(Br)cc(Br)c1 (stereo not given), the IFI is reported as 3.1%.
For CN1CCN(CCCN(Cc2ccc(-c3ccc(CNC4CCCC4)cc3)cc2)C(=O)CCC2CCCC2)CC1, the IFI was 8.22%.
Work on CCCN(CCC)c1nn2c(=O)c(C(=O)N3CCN(Cc4ccccc4)CC3)cnc2s1 yielded an IFI of 0%.
With COCCn1c(-c2cccc(Cl)c2)nn(-c2ccc([N+](=O)[O-])cc2C#N)c1=S the IFI was 1.38%.
N=C(NCC1CC1c1ccccc1)c1cccc(C(=N)NCC2CC2c2ccccc2)n1 (stereo not given) gave an IFI of 5.65%.
Fc1ccc2[nH]c(-c3ccc(-c4ccc(CN5CCN(c6ccncc6)CC5)cc4)cc3)nc2c1 showed an IFI of 11.5%.
In the case of COc1ccc(OC)c(NC(=O)CSc2nc(-c3ccccc3Cl)ns2)c1, the IFI is reported as 1.63%.
With CCNc1cc(C(=O)N[C@@H](Cc2ccccc2)[C@H](O)CNCc2cccc(-c3cncnc3)c2)cc(N2CCCC2=O)c1 the IFI was -0%.
In the case of CC1CN(c2nc(NCCc3ccc(O)cc3)nc(NCc3ccccc3-c3ccc(C(F)(F)F)cc3)n2)CC(C)N1 (stereo not given), the IFI is reported as 17.2%.
Cc1ccc(NC(=O)c2ccc(Cl)cc2)cc1-c1ccc(C(=O)Nc2ccncc2)cc1 showed an IFI of 15.5%.
For COc1ccc(CCc2ccc(-c3c(C)[nH]c(C)c(Cl)c3=O)cc2)cc1, the IFI was -0%.
Work on CN(CCN)Cc1ccc(-c2ccc(-c3nc4cc(F)ccc4[nH]3)s2)cc1 yielded an IFI of 9%.
Work on O=C(Nc1cccc(-c2cccc(-c3nc4cc(C(F)(F)F)ccc4[nH]3)c2)c1)c1csnn1 yielded an IFI of 4.39%.
Compound FC(F)(F)COc1c(CNCCCCCCNCc2ccc3ccccc3c2OCC(F)(F)F)ccc2ccccc12 has an IFI of 14.9%.
With Cc1cc(NC2CCCC2)nc(Nc2ccccc2F)n1 the IFI was 7.58%.
Work on Cc1cc(N[C@@H](CC(C)C)C(=O)NCCc2ccccc2)nc(Nc2ccccc2)n1 yielded an IFI of 4.65%.
Compound CNS(=O)(=O)CCNCc1ccc(-c2ccc3ncnc(Nc4ccc(OCc5ccccc5)cc4)c3c2)o1 has an IFI of 2.86%.
Compound Cc1cc(NCCC(=O)Nc2ccccc2)nc(NCC2CCCCC2)n1 has an IFI of 11.6%.
COc1ccc2nc3cc(Cl)ccc3c(NCCc3ccccc3)c2c1 gave an IFI of 0%.
For Nc1ccc2[nH]cc(C3CCN(CCC4CCN(C(=O)/C=C/c5ccc(Cl)c(Cl)c5)CC4)CC3)c2n1, the IFI was 8.76%.
Cc1ccc(N2C(N)=NC(N)=NC2(C)C)cc1Cl gave an IFI of 1.46%.
In the case of Clc1ccc2c(NN=Cc3ccccc3)ccnc2c1, the IFI is reported as 3.68%.
Compound COc1ccc(Cc2c(C)nc3nc(N)nc(N)c3c2C)cc1OC has an IFI of 2.16%.
CCCCCCC(N)c1ccc(OCCCOc2ccc(C(N)CCCCCC)cc2)cc1 (stereo not given) gave an IFI of 24.5%.
Work on O=C(C=Cc1ccc(Cl)c(Cl)c1)NCCCCCN1CCCC(CCCNS(=O)(=O)c2cccc3cccnc23)C1 (stereo not given) yielded an IFI of 5.8%.
Compound CCOc1cc(C)ccc1N1CCN(CCN2CCC(NC(=O)c3ccc(-c4ccc(C#N)cc4)cc3)CC2)CC1 has an IFI of 3.67%.
Compound O=C(/C=C/c1ccc(Cl)c(Cl)c1)N1CCC(CCN2CCC(c3nc4cc(O)ccc4[nH]3)CC2)CC1 has an IFI of 4.32%.
Compound CCN(CC)CCN(Cc1ccc(-c2ccc(C(F)(F)F)cc2)cc1)C(=O)Cn1cc(Cc2cnn(C)c2)c(=O)nc1/C=C/c1ccc(F)cc1 has an IFI of 4.35%.
With C[C@H]1CN(Cc2cccc(-c3cc(CNC(=O)c4cccc(CC5CCN(C)CC5)c4)ccc3F)c2)CCN1C the IFI was 5.79%.
Compound CCCC[C@H](NC(=O)OC(C)(C)C)C(=O)Nc1ccc(Cc2ccc(NC(=O)[C@H](CCCC)NC(=O)OC(C)(C)C)cc2)cc1 has an IFI of 0.75%.
For COc1ccc2[nH]cc(C3CCN(CCCCCNC(=O)c4ccc(-c5ccccc5)cc4)CC3)c2c1, the IFI was 8.4%.
CCCc1cc(Cc2cnc(N)nc2N)cc(CCC)c1OC gave an IFI of 3.85%.
CN1CCN(Cc2ccc(-c3ccc4c(Nc5cc(O)c(F)cc5Cl)ccnc4c3)o2)CC1 gave an IFI of 6.57%.
CN(C)C(S)=NN=Cc1cccc(O)c1O showed an IFI of 7.25%.
With CC1CCN(CCCNc2ccc(C(=O)Nc3ccc(C(F)(F)F)cc3)cc2[N+](=O)[O-])CC1 the IFI was 5.88%.

Reference: ChEMBL document CHEMBL1157539, “Thousands of chemical starting points for antimalarial lead identification” (Nature, 2010)
